Experimental data: paper PMC9911399, “Two distinct binding modes provide the RNA-binding protein RbFox with extraordinary sequence specificity”
Numbering of substitutions follows the chain as printed; changes in the protein carry UniProt numbers. This is one part of the list.

T1: RBFOX1 RRM (Homo sapiens, UniProt Q9NWB1 109-208)
T1 sequence: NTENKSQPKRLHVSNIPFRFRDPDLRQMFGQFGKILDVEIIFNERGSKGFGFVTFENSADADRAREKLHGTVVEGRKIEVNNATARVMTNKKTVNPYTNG

B1: ACGUUGA (DNA:RNA)
RNA: GGGAGACCGGAAUUCAGAUUGUCCACGUUGAUUAAAUCCCGUCGUAGCCACCA
DNA 1: CAATCTGAATTCCGGTCTCCC
DNA 2: TGGTGGCTACGACGGGATT
B2: UCAUCGG (DNA:RNA)
RNA: B1 RNA with A25U, G27A, U29C, A31G
DNA 1: CAATCTGAATTCCGGTCTCCC
DNA 2: TGGTGGCTACGACGGGATT
B3: GUGCGUA (DNA:RNA)
RNA: B1 RNA with A25G, C26U, U28C, U29G, G30U
DNA 1: CAATCTGAATTCCGGTCTCCC
DNA 2: TGGTGGCTACGACGGGATT
B4: CGGGUCA (DNA:RNA)
RNA: B1 RNA with A25C, C26G, U28G, G30C
DNA 1: CAATCTGAATTCCGGTCTCCC
DNA 2: TGGTGGCTACGACGGGATT
B5: CUGGCAG (DNA:RNA)
RNA: B1 RNA with A25C, C26U, U28G, U29C, G30A, A31G
DNA 1: CAATCTGAATTCCGGTCTCCC
DNA 2: TGGTGGCTACGACGGGATT
B6: CAUGCCC (DNA:RNA)
RNA: GGGAGACCGGAAUUCAGAUUGUCCCAUGCCCUUAAAUCCCGUCGUAGCCACCA
DNA 1: CAATCTGAATTCCGGTCTCCC
DNA 2: TGGTGGCTACGACGGGATT
B7: CGAAGAU (DNA:RNA)
RNA: B6 RNA with A26G, U27A, G28A, C29G, C30A, C31U
DNA 1: CAATCTGAATTCCGGTCTCCC
DNA 2: TGGTGGCTACGACGGGATT
B8: AUUACGG (DNA:RNA)
RNA: B1 RNA with C26U, G27U, U28A, U29C, A31G
DNA 1: CAATCTGAATTCCGGTCTCCC
DNA 2: TGGTGGCTACGACGGGATT
B9: UUACGGA (DNA:RNA)
RNA: B1 RNA with A25U, C26U, G27A, U28C, U29G
DNA 1: CAATCTGAATTCCGGTCTCCC
DNA 2: TGGTGGCTACGACGGGATT
B10: GAGCGCA (DNA:RNA)
RNA: B1 RNA with A25G, C26A, U28C, U29G, G30C
DNA 1: CAATCTGAATTCCGGTCTCCC
DNA 2: TGGTGGCTACGACGGGATT
B11: AGCUCAC (DNA:RNA)
RNA: B1 RNA with C26G, G27C, U29C, G30A, A31C
DNA 1: CAATCTGAATTCCGGTCTCCC
DNA 2: TGGTGGCTACGACGGGATT
B12: CGACGAG (DNA:RNA)
RNA: B6 RNA with A26G, U27A, G28C, C29G, C30A, C31G
DNA 1: CAATCTGAATTCCGGTCTCCC
DNA 2: TGGTGGCTACGACGGGATT
B13: GAGCUCC (DNA:RNA)
RNA: B6 RNA with C25G, U27G, G28C, C29U
DNA 1: CAATCTGAATTCCGGTCTCCC
DNA 2: TGGTGGCTACGACGGGATT
B14: UCUCCCG (DNA:RNA)
RNA: B6 RNA with C25U, A26C, G28C, C31G
DNA 1: CAATCTGAATTCCGGTCTCCC
DNA 2: TGGTGGCTACGACGGGATT
B15: CUACCUG (DNA:RNA)
RNA: B6 RNA with A26U, U27A, G28C, C30U, C31G
DNA 1: CAATCTGAATTCCGGTCTCCC
DNA 2: TGGTGGCTACGACGGGATT
B16: UGGUAAC (DNA:RNA)
RNA: B1 RNA with A25U, C26G, U29A, G30A, A31C
DNA 1: CAATCTGAATTCCGGTCTCCC
DNA 2: TGGTGGCTACGACGGGATT
B17: UCUCUGG (DNA:RNA)
RNA: B1 RNA with A25U, G27U, U28C, A31G
DNA 1: CAATCTGAATTCCGGTCTCCC
DNA 2: TGGTGGCTACGACGGGATT
B18: GCCCAAC (DNA:RNA)
RNA: B1 RNA with A25G, G27C, U28C, U29A, G30A, A31C
DNA 1: CAATCTGAATTCCGGTCTCCC
DNA 2: TGGTGGCTACGACGGGATT
B19: GGUGACC (DNA:RNA)
RNA: B6 RNA with C25G, A26G, C29A
DNA 1: CAATCTGAATTCCGGTCTCCC
DNA 2: TGGTGGCTACGACGGGATT
B20: CAAUUGC (DNA:RNA)
RNA: B1 RNA with A25C, C26A, G27A, A31C
DNA 1: CAATCTGAATTCCGGTCTCCC
DNA 2: TGGTGGCTACGACGGGATT
B21: CUUGCUU (DNA:RNA)
RNA: B6 RNA with A26U, C30U, C31U
DNA 1: CAATCTGAATTCCGGTCTCCC
DNA 2: TGGTGGCTACGACGGGATT
B22: UAAUUAC (DNA:RNA)
RNA: B1 RNA with A25U, C26A, G27A, G30A, A31C
DNA 1: CAATCTGAATTCCGGTCTCCC
DNA 2: TGGTGGCTACGACGGGATT
B23: GCACAUG (DNA:RNA)
RNA: B1 RNA with A25G, G27A, U28C, U29A, G30U, A31G
DNA 1: CAATCTGAATTCCGGTCTCCC
DNA 2: TGGTGGCTACGACGGGATT
B24: CGGGAUG (DNA:RNA)
RNA: B6 RNA with A26G, U27G, C29A, C30U, C31G
DNA 1: CAATCTGAATTCCGGTCTCCC
DNA 2: TGGTGGCTACGACGGGATT
B25: ACUCGUC (DNA:RNA)
RNA: B1 RNA with G27U, U28C, U29G, G30U, A31C
DNA 1: CAATCTGAATTCCGGTCTCCC
DNA 2: TGGTGGCTACGACGGGATT
B26: CGGGCUA (DNA:RNA)
RNA: B6 RNA with A26G, U27G, C30U, C31A
DNA 1: CAATCTGAATTCCGGTCTCCC
DNA 2: TGGTGGCTACGACGGGATT
B27: CGAAAUG (DNA:RNA)
RNA: B6 RNA with A26G, U27A, G28A, C29A, C30U, C31G
DNA 1: CAATCTGAATTCCGGTCTCCC
DNA 2: TGGTGGCTACGACGGGATT
B28: UAGGUUU (DNA:RNA)
RNA: B1 RNA with A25U, C26A, U28G, G30U, A31U
DNA 1: CAATCTGAATTCCGGTCTCCC
DNA 2: TGGTGGCTACGACGGGATT
B29: GUUCGCA (DNA:RNA)
RNA: B6 RNA with C25G, A26U, G28C, C29G, C31A
DNA 1: CAATCTGAATTCCGGTCTCCC
DNA 2: TGGTGGCTACGACGGGATT
B30: ACACACU (DNA:RNA)
RNA: B1 RNA with G27A, U28C, U29A, G30C, A31U
DNA 1: CAATCTGAATTCCGGTCTCCC
DNA 2: TGGTGGCTACGACGGGATT
B31: UUUCUGC (DNA:RNA)
RNA: B1 RNA with A25U, C26U, G27U, U28C, A31C
DNA 1: CAATCTGAATTCCGGTCTCCC
DNA 2: TGGTGGCTACGACGGGATT

Each binder was assayed against T1, RBFOX1 RRM (assay: EMSA; HiTS-Eq, 1 nM pool, 10 min; buffer printed only for the single-RNA assays: 10 mM Tris pH 7.5, 150 mM NaCl, 3.4 mM EDTA, 0.001% NP-40, 30 C). Conditions: tags: His6 N-terminal (pET28a); label: 5' 32P.
Summary of the method: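 A pool of RNA with 7 randomized nucleotides, 5′-radiolabelled and with DNA-annealed flanks, was equilibrated at 1 nM for 10 min in 50 µL with purified RbFox RRM, wild type or mutant, across increasing protein concentrations. Free RNA was separated by 8% native PAGE, excised, reverse-transcribed, barcoded by PCR and sequenced. Relative association constants were obtained from read-count changes of each RNA species versus the control reaction and normalised to the cognate motif.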

Question: B1 was tested. Which binding signal did it give?
Answer: Its binding signal is 0.0118 KA relative to UGCAUGU.

Question: Which binding signal does the source give for B2 here?
Answer: The binding signal was 0.00798 KA relative to UGCAUGU.

Question: How did the binding signal turn out when B3 was run?
Answer: Its binding signal is 0.0121 KA relative to UGCAUGU.

Question: For B4, which binding signal is on record?
Answer: The binding signal was 0.0232 KA relative to UGCAUGU.

Question: How did the binding signal turn out when B5 was run?
Answer: The binding signal was 0.0227 KA relative to UGCAUGU.

Question: How did the binding signal turn out when B6 was run?
Answer: Its binding signal is 0.00556 KA relative to UGCAUGU.

Question: How did the binding signal turn out when B7 was run?
Answer: The binding signal was 0.00689 KA relative to UGCAUGU.

Question: For B8, which binding signal is on record?
Answer: Its binding signal is 0.00648 KA relative to UGCAUGU.

Question: Which binding signal does the source give for B9 here?
Answer: The binding signal was 0.00194 KA relative to UGCAUGU.

Question: For B10, which binding signal is on record?
Answer: The binding signal was 0.0188 KA relative to UGCAUGU.

Question: B11 was tested. Which binding signal did it give?
Answer: The binding signal was 0.00457 KA relative to UGCAUGU.

Question: With B12 as the binder, how does the binding signal read?
Answer: The binding signal was 0.0158 KA relative to UGCAUGU.

Question: Which binding signal does the source give for B13 here?
Answer: The binding signal was 0.0192 KA relative to UGCAUGU.

Question: How did the binding signal turn out when B14 was run?
Answer: Its binding signal is 0.00933 KA relative to UGCAUGU.

Question: B15 was tested. Which binding signal did it give?
Answer: Its binding signal is 0.00798 KA relative to UGCAUGU.

Question: With B16 as the binder, how does the binding signal read?
Answer: Its binding signal is 0.0137 KA relative to UGCAUGU.

Question: For B17, which binding signal is on record?
Answer: The binding signal was 0.016 KA relative to UGCAUGU.

Question: For B18, which binding signal is on record?
Answer: Its binding signal is 0.00668 KA relative to UGCAUGU.

Question: For B19, which binding signal is on record?
Answer: The binding signal was 0.0203 KA relative to UGCAUGU.

Question: With B20 as the binder, how does the binding signal read?
Answer: Its binding signal is 0.00895 KA relative to UGCAUGU.

Question: B21 was tested. Which binding signal did it give?
Answer: The binding signal was 0.0152 KA relative to UGCAUGU.

Question: With B22 as the binder, how does the binding signal read?
Answer: The binding signal was 0.00873 KA relative to UGCAUGU.

Question: B23 was tested. Which binding signal did it give?
Answer: The binding signal was 0.0141 KA relative to UGCAUGU.

Question: How did the binding signal turn out when B24 was run?
Answer: The binding signal was 0.0412 KA relative to UGCAUGU.

Question: For B25, which binding signal is on record?
Answer: Its binding signal is 0.00135 KA relative to UGCAUGU.

Question: For B26, which binding signal is on record?
Answer: The binding signal was 0.0304 KA relative to UGCAUGU.

Question: With B27 as the binder, how does the binding signal read?
Answer: Its binding signal is 0.011 KA relative to UGCAUGU.

Question: How did the binding signal turn out when B28 was run?
Answer: Its binding signal is 0.0191 KA relative to UGCAUGU.

Question: How did the binding signal turn out when B29 was run?
Answer: Its binding signal is 0.0218 KA relative to UGCAUGU.

Question: Which binding signal does the source give for B30 here?
Answer: The binding signal was 0.00126 KA relative to UGCAUGU.

Question: B31 was tested. Which binding signal did it give?
Answer: The binding signal was 0.0305 KA relative to UGCAUGU.
